# The supplement of paper PMC11417369
# Some of the results follow.
# Test system: PF3D7_0420300 AP2 domain 1 (GST-tagged)
# Assay: gcPBM binding intensity (ln(normalized median fluorescence intensity)); higher = stronger DNA binding
# Summary of the method: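 Binding intensity values are the highest Masliner-normalised natural-log median intensity among replicate spots of either probe orientation. The binding step lasted 1 h in 1× PBS with 1% milk, 0.2 mg/ml BSA, 0.5% salmon testes DNA and 0.03% Triton X-100, using GST-tagged P. falciparum DNA-binding domains expressed in E. coli on an Agilent 4 × 180k array of primer-extended double-stranded 36-bp intergenic genomic probes plus negative controls. Alexa488 anti-GST antibody and a 488 nm scan detected bound protein.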
row,Sequence,gcPBM binding intensity (ln)
1,TTTTGTGGAGGATGGTGTACGGTATTGTATTATTAC [XGTACX_site1942],9.43
2,TTTATAGTTTTTAATAGTACACATATTTTTAAGTAT [XGTACX_site5498],9.13
3,TATCATAAAATATGTAGTACGTATATATATAAAAAT [XGTACX_site5455],9.39
4,TAAACAGACATACATACACACATACATACAGACATA [CACACA_site6997],9.88
5,AAAAAAAAAGTATATATATATTTAAGGAATTCTCTC [GTGCAC_negctrl_site454],9.14
6,TGTTTCCTATTTTGTATGCACTTTTTGTCATAATTA [GTGCAC_site9921],9.57
7,TAAATAAATAAAAAAACACACATATAAATATAAATA [CACACA_site7815],9.61
8,TATGTGTGACAAAATTGTACGGTCTCTTTATTTTGT [XGTACX_site2679],9.43
9,TATACGGACTCTAAGTGTACTTAAAATAATTCAAAC [XGTACX_site3606],9.24
10,TATATTGCCCTTCACACACACACATATATATATATA [CACACA_site2492],10.3
11,TAAAAATGTTGACACACACACATAAATATATTTTAT [CACACA_site7227],9.74
12,ATTTTTATACCTAAGTGTACATGATGTTTTCTTTTT [XGTACX_site973],9.52
13,TATTATATAATAAAAATTATTATTATTTGTATAAAT [CACACA_negctrl_site195],8.83
14,CATTTTTAAAAAAATTGTACAAAACATATATGTGTA [XGTACX_site3396],9.03
15,TTCCTTTTGAACTCTCGTACGCGTAGGTGTTATTAT [XGTACX_site6264],9.25
16,TATTAAAAGTAAAAAACACACATGGATATATACATA [CACACA_site3959],9.62
17,AAAAAAAAAAAAAAAAAAAAAAAAATATATATATAT [CACACA_negctrl_site436],9.14
18,GTTGTGTAATTCGTAACACACATAAAATATAAATAA [CACACA_site7799],9.48
19,TTACTATATAATATGTGTACACAACATATAATATAT [XGTACX_site1383],9.36
20,TTTTTTTTTTGATGTTGTACTTATATACTATATAAT [XGTACX_site2778],9.41
21,GCTTCATTTTAAACTTGTACTTATTTTTTGGTAAAT [XGTACX_site8879],9.36
22,TAGTTACTTCTTATATAAAATATGTATATAAAAATA [GTGCAC_negctrl_site190],8.81

row,Sequence,gcPBM binding intensity (ln)
1,TTGTTTGTTGTAACGTGTACAGATAAAAATAAAGGG [XGTACX_site375],9.28
2,TTCATATTATAGTGCACACAAAAATATATATATGGT [CACACA_site2855],9.48
3,ACATATTAATTATAAAGTACATATATATATATATAT [XGTACX_site4540],9.36
4,TCTCTCATTTATTTTTGTACTTAATCCAGCACGTTT [XGTACX_site1369],9.35
5,ATATCTTTGCAAAGATGTACTTGTAAAAATATATGA [XGTACX_site768],9.08
6,TATATATATATATATATACACACGTATATATATACA [CACACA_site4155],9.5
7,TAATATCAATATAAAGTACACACTATAGTATGTATT [CACACA_site2280],9.45
8,TAAAAGTAAAGACATGCATGCATTGGTATCTTTTAC [TGCATGCA_site665],9.1
9,GACCCACTTTTCTGCACACATAAAAAATATATAAAT [CACACA_site4483],9.76
10,TATAATAAAACTTTTACACACTTTAAAAAAAAAAAA [CACACA_site6392],9.19
11,TTTATATTTAAATATATATGAGAAAACACAAAATAT [TGCATGCA_negctrl_site211],9.4
12,TAGCGGCGGTATCATGCACACGTATATATTGTAACA [CACACA_site8453],9.36
13,AACATGTATATATTATGTACATATGTTAAAATGATA [XGTACX_site6217],9.3
14,ATAGTTTTATATAAATGTACAAATGATTTCAAATAG [XGTACX_site8236],9.09
15,TTACCTTTTTCTAATGGTACACATAAAATATCATTT [XGTACX_site6825],9.11
16,TTTTCTTACACGAATTTTAAATTCAATATTAAACAT [CACACA_negctrl_site286],8.98
17,GAGTTAATTTTTTCGTGTACTTGAAAATATTTTTTT [XGTACX_site6392],9.27
18,TTAGCAACTATTACTACACACATTTGTATATAACTT [CACACA_site6850],9.7
19,GTGGAAATATAACACATTTTTTTTAATAATTATATT [TGCATGCA_negctrl_site522],9.01
20,TTTATTATAATATGTTGTACAAGACGTTTCAGTATA [XGTACX_site4486],9.13
21,AAATTATCTTAATAGGATGTTCAAGGAGAAAGATGA [CACACA_negctrl_site1032],9.22
22,TAAATTAATACCTATGCACACATTTTTTTTTTTAAA [CACACA_site1238],9.28

row,Sequence,gcPBM binding intensity (ln)
1,CTTAAATTTTTAAATACACACATACACCCATACACA [CACACA_site4461],9.64
2,AAACCCTATTCAATGCAATAATTTTATAATTTTTTT [TGCATGCA_negctrl_site434],9.09
3,TTTTTTTTAAATATCACACACATATAATATATTCTA [CACACA_site3668],9.43
4,AAAATATAAAAAGTCACACATATATATATTTATTTA [CACACA_site4872],9.24
5,TTGAATGAAAAAATTTGTACTCATATAAATAATTTA [XGTACX_site4628],8.79
6,CAATAATTTTTTGTGGGTACAAATAATTTTTTAAAT [XGTACX_site2407],8.96
7,AGGAGAAAAGATAAAGACTTCAAGAAAAAAAAATAA [TGCATGCA_negctrl_site258],9.08
8,TATTTTATGTAAATTGGTACACATATGTCAGTAAAA [XGTACX_site7111],9.2
9,GATGCTAAAATTTATACACACAAAAAAAAAAAATTC [CACACA_site3284],9.42
10,AAAAAAAAAAAATATACACACACACCGACACATAAA [CACACA_site9270],10.1
11,TTTTGAATATTTGGTCGTACGTAAAAATAGATAATT [XGTACX_site5755],9.05
12,TTTCATATTTTGTCCTGTTTTTTTTTTTTTTTTCTT [CACACA_negctrl_site993],9.65
13,AAAAGAATTACTTTCACACATATATATCTGTAAATA [CACACA_site5798],9.15
14,TACATATTTATATACACACACACCCTAAAAATATAT [CACACA_site6861],10.1
15,AATAATGAAGCTTATGCACACGTTCATTATTTATAT [CACACA_site5736],9.41
16,ATAATTTTTTTTTTTTTTTTTTGAAAGTAGCATATG [CACACA_negctrl_site732],8.74
17,TAACAAAACCTTATATGTACACACATATACATCACA [XGTACX_site6772],9.61
18,TTATCATTTTAAATCACACACATATATATATATATA [CACACA_site2849],9.36
19,TTAAAAATGAACATATGTACATATATATATATATAT [XGTACX_site7923],9.33
20,ACTACAAGGCAATACAGTACATATAAATGTCATAAT [XGTACX_site8468],9.4
21,TACCTTTTATTAATGTGTACCTAAAATATAATACTT [XGTACX_site192],9.42
22,AAAAAGGTTATTGGTACACACATATGTATTTATATA [CACACA_site4464],9.57

row,Sequence,gcPBM binding intensity (ln)
1,TTTAAAAATTTGATCAAACACACGTTGCATAAATTA [CACACA_site3945],9.11
2,AAAACAAAAATATAAACACACATACATTGGTTTTCT [CACACA_site5405],9.71
3,TCTATATAATACCAATGTACATAGTTTTAAGCATAA [XGTACX_site1889],9.07
4,AGGATATGCAGACACACACACATATAGATTTATATA [CACACA_site7100],9.73
5,ATAATATAAACATACACACACACATATATATATATA [CACACA_site5591],10
6,ATAAATTGTAAAATGTGTACGCAGATATTGCGTATT [XGTACX_site332],9.3
7,TTTTGTCTTCAAATCAAATGTATATAAAAAAAATAC [CACACA_negctrl_site1717],8.92
8,AATAGTGTATAAATTTGTACATATAATTAAAAGGAA [XGTACX_site1143],9.36
9,AACTTGTGTGGATATTGTACTAACAATATGTATGAT [XGTACX_site6302],9.13
10,AATAACTTTTTGAGATGTACATTTTTAATTCGTAGA [XGTACX_site8455],8.9
11,TTATTCGAACAAAGGAAAAAATATATTCAAAGGAAA [TGCATGCA_negctrl_site215],9.17
12,ATTCATAAAAAGAGGTGTACATTAATATAATATATA [XGTACX_site8283],9.29
13,GGATTTATTTTATATACACACATACCTATATTTATA [CACACA_site7084],9.58
14,ACTTTAATAATTCACTTATTTTCTTATTATATTATT [CACACA_negctrl_site556],9.61
15,TTTTTAACTAACATATCAATTCCATACGTCGTCAAA [CACACA_negctrl_site560],8.82
16,TAAAATATTGTTATTACATGCAACCTTATGAAAAAT [TGCATGCA_site706],9.17
17,ATATAAAATAATAAGGGTACAGGTCTCTGCGATGTT [XGTACX_site786],9.55
18,AGAATTTTAGATTTAGCACACATTTTTTTTTTTTTT [CACACA_site4081],9.21
19,ACTCGCATATTTAAATGTACTTAATTAGAAGAAAAA [XGTACX_site3304],8.88
20,AAAATTAAAATAGTAATACACACTTCATAGGAAATG [CACACA_site1762],9.47
21,AACAAGAAATAATCACGTACACATTATAATAACTAA [XGTACX_site8184],9.49
